Data reported in patent US20260139049A1 (PEDIATRIC IMMUNITY AND HEALTHCARE GUANGZHOU BIOTECHNOLOGY, published 2026).

T1: human CLDN6 (human, UniProt P56747 1-220)
T1 construct: whole, on cells; four-transmembrane protein; also called claudin-6; HEK293T-CLDN6
T1 sequence (looked up): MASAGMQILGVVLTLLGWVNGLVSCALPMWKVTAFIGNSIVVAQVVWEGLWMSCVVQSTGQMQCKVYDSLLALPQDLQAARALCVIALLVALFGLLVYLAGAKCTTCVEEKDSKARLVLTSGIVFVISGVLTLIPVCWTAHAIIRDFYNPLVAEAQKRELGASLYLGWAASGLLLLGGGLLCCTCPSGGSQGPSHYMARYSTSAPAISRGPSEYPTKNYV

B1: PiH2001 (antibody, human IgG1, kappa)
heavy: QVQLVQSGAEVKKPGASVKVSCKASGYTFTDYNMHWVRQAPGQRLEWIGYINPNNGATNYNQKFKGRATITVDTSASTAYMELSSLRSEDTAVYYCARWDGYVYYYGMDYWGQGTLVTVSS[human IgG1 constant region not spelt out]
light: DIQMTQSPSSLSASVGDRVTITCKASDHINNWLAWYQQKPGKAPKLLISGATSLETGVPSRFSGSGSGTDYTFTISSLQPEDIATYYCQQYWNTPYTFGGGTKLEIKRTVAAPSVFIFPPSDEQLKSGTASVVCLLNNFYPREAKVQWKVDNALQSGNSQESVTEQDSKDSTYSLSSTLTLSKADYEKHKVYACEVTHQGLSSPVTKSFNRGEC
notes: humanized from 54B5A7; IgG1; also called 54-VH1 + VL3
B2: PiH2005 (antibody, human IgG1, kappa)
heavy: B1 heavy
light: B1 light with D17G
notes: humanized from 54B5A7; IgG1; also called 54-VH1 + VL4
B3: PiH2008 (antibody, human IgG1, kappa)
heavy: B1 heavy with R44S, T74K, Y95N
light: B1 light with D17G
notes: humanized from 54B5A7; IgG1; also called 54-VH4 + VL4
B4: PiH2004 (antibody, human IgG1, kappa)
heavy: B1 heavy with R44S, T74K, Y95N
light: B1 light
notes: humanized from 54B5A7; IgG1; also called 54-VH4 + VL3

Each binder was assayed against T1, human CLDN6 (assay: FACS on PA-1 tumour cells; target on the cells taken as CLDN6).
Description: (§1) 50 μL of an antibody to be tested was added to a 96-well plate, then 1×10⁵ cells were added to each well, and incubation was conducted at 4° C. for 1 h. Cells were washed three times with PBS. […] Finally, cells were washed three times with PBS, and signals were read using FACS. A binding capacity of the antibody to each tumor cell was analyzed based on detection data.

EC50 [µg/mL]	Binder
0.945	B1
1	B2
0.871	B3
0.949	B4

What follows are binders tested against T1, human CLDN6 (assay: FACS on HepG2 tumour cells; target on the cells taken as CLDN6).
Description: as §1

EC50 [µg/mL]	Binder
1.69	B3
1.86	B4

The binders below were run against T1, human CLDN6 (assay: FACS on HEK293T-CLDN6 cells).
Description: To detect a binding capacity of a chimeric or humanized antibody to CLDN6, a CLDN6-expressing cell line HEK293T-CLDN6 and a CLDN6-negative control cell line HEK293T were washed three times with PBS. 1×10⁵ test cells and 50 μL of an antibody solution to be tested were added to a 96-well plate, and incubated at 4° C. for 1 h. The cells were then washed three times with PBS. […] Finally, cells were washed three times with PBS, and signals were read using FACS.
An EC50 value (a concentration of an antibody that binds to half of binding sites at equilibrium) is calculated through nonlinear regression.

EC50 [µg/mL]	Binder
0.751	B1
0.62	B2
0.43	B3
0.282	B4

Positions count from the first letter of the chain named.
